Laboratory results: the supplement of paper PMC4604168 (melanoma cell lines)
The list shows a part of the results. Many values rest on one well or one pass, so single values are uncertain.

Key:
Test in all cases: cell count relative to DMSO control; melanoma cells; higher = more viable cells
Conditions in all cases: library dose: low library concentration; 72 h
[1] = test system: MZ2-MEL
[2] = test system: MeWo
[3] = test system: RPMI7951
[4] = test system: RVH-421
[5] = test system: SkMel28
[6] = test system: SkMel30
[7] = test system: SkMel5
[8] = test system: UACC257
[9] = test system: UACC62
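Note: cell number obtained by counting DAPI-stained nuclei in high-throughput microscope images with image analysis software, screen run in 1,536-well plates.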

SMILES | cell count [1] | cell count [2] | cell count [3] | cell count [4] | cell count [5] | cell count [6] | cell count [7] | cell count [8] | cell count [9]
C=CCn1c(=O)c2cnc(Nc3ccc(N4CCN(C)CC4)cc3)nc2n1-c1cccc(C(C)(C)O)n1 + O=c1cc(-c2cccc3c2Sc2ccccc2S3)oc(N2CCOCC2)c1 [KU55933] (first compound 0.02 µM, partner dose 1 µM) | 99.5% | 95.8% | 100% | 108% | 83.1% | 88.6% | 81.7% | 82.1% | 90.7%
Cc1nc(Nc2ncc(C(=O)Nc3c(C)cccc3Cl)s2)cc(N2CCN(CCO)CC2)n1 [dasatanib] + COc1cc2ncnc(Nc3ccc(Oc4ccccc4)cc3)c2cc1OC [SrcI1] (first compound 0.004 µM, partner dose 2 µM) | 69.2% | 90.7% | 61.6% | 105% | 61.6% | 80.4% | 84.2% | 66.6% | 94.4%
CO[C@@H]1[C@H](N(C)C(=O)c2ccccc2)C[C@H]2O[C@]1(C)n1c3ccccc3c3c4c(c5c6ccccc6n2c5c31)C(=O)NC4 [Midostaurin] + Cn1cc(/C=C2\C(=O)Nc3cccnc32)c2ccccc21 [GW441756] (first compound 0.08 µM, partner dose 0.4 µM) | 88.1% | 78.3% | 70.4% | 103% | 78% | 109% | 72.5% | 55.4% | 89.3%
C=CCn1c(=O)c2cnc(Nc3ccc(N4CCN(C)CC4)cc3)nc2n1-c1cccc(C(C)(C)O)n1 + COc1cc(N2CCC(N3CCN(C)CC3)CC2)ccc1Nc1ncc(Cl)c(Nc2ccccc2S(=O)(=O)C(C)C)n1 [NVP-TAE684] (first compound 0.02 µM, partner dose 0.08 µM) | 101% | 81.1% | 111% | 577% | 71.5% | 83.3% | 78.4% | 81.2% | 87.8%
Cc1nc(Nc2ncc(C(=O)Nc3c(C)cccc3Cl)s2)cc(N2CCN(CCO)CC2)n1 [dasatanib] + CCc1ccc(CCOc2ccc(CC3SC(=O)NC3=O)cc2)nc1 [pioglitazone] (first compound 0.004 µM, partner dose 2 µM) | 77.2% | 92.4% | 69.2% | 108% | 73.9% | 97% | 82.9% | 83.3% | 77.3%
C=CCn1c(=O)c2cnc(Nc3ccc(N4CCN(C)CC4)cc3)nc2n1-c1cccc(C(C)(C)O)n1 + c1cc(-c2cnn3cc(-c4ccc(OCCN5CCCCC5)cc4)cnc23)ccn1 [Dorsomorphin] (first compound 0.02 µM, partner dose 0.4 µM) | 96.6% | 91.2% | 88.6% | 89.3% | 84% | 115% | 87% | 78.1% | 86%
NCC(=O)Nc1ccc(-n2nc(C(F)(F)F)cc2-c2ccc3c(ccc4ccccc43)c2)cc1 + COc1ccc(-c2ccc3c(N4CCOCC4)nc(N4C[C@@H](C)O[C@@H](C)C4)nc3n2)cc1CO [KU0063794] (first compound 1 µM, partner dose 0.02 µM) | 99.2% | 66.2% | 107% | 95.3% | 70.2% | 51.3% | 111% | 85% | 94.5%
CN(C)S(=O)(=O)c1ccc2c(c1)/C(=C/c1cc3c([nH]1)CCCC3)C(=O)N2 + O=C(O)C(=O)Nc1sc2c(c1C(=O)O)CCNC2 [TCS401] (first compound 0.4 µM, partner dose 1.66667 µM) | 95.6% | 85.6% | 108% | 100% | 78.7% | 73.7% | 71.8% | 82.8% | 71.8%
C=CCn1c(=O)c2cnc(Nc3ccc(N4CCN(C)CC4)cc3)nc2n1-c1cccc(C(C)(C)O)n1 + CCc1ccc(CCOc2ccc(CC3SC(=O)NC3=O)cc2)nc1 [pioglitazone] (first compound 0.02 µM, partner dose 2 µM) | 103% | 75% | 92.3% | 93.7% | 89% | 83.8% | 84% | 84.5% | 84.6%
C=CCn1c(=O)c2cnc(Nc3ccc(N4CCN(C)CC4)cc3)nc2n1-c1cccc(C(C)(C)O)n1 + CC(C)CCN1c2nc(Nc3cc(F)c(O)c(F)c3)ncc2N(C)C(=O)C1C [BID1870] (first compound 0.02 µM, partner dose 0.2 µM) | 96% | 89.8% | 102% | 81.3% | 66.6% | 87.7% | 98.9% | 86.7% | 75.2%
Cc1nc(Nc2ncc(C(=O)Nc3c(C)cccc3Cl)s2)cc(N2CCN(CCO)CC2)n1 [dasatanib] + Oc1cc(-c2nc(-c3ccccc3)[nH]c2-c2ccncc2)ccc1Cl [L779450] (first compound 0.004 µM, partner dose 0.2 µM) | 58.2% | 98.9% | 78.6% | 67% | 84.2% | 81.4% | 89.1% | 78.8% | 68.5%
NCC(=O)Nc1ccc(-n2nc(C(F)(F)F)cc2-c2ccc3c(ccc4ccccc43)c2)cc1 + CCc1ccc(CCOc2ccc(CC3SC(=O)NC3=O)cc2)nc1 [pioglitazone] (first compound 1 µM, partner dose 2 µM) | 86.8% | 54.4% | 95.3% | 89.4% | 63.4% | 44.1% | 77.8% | 96.6% | 91.9%
NCC(=O)Nc1ccc(-n2nc(C(F)(F)F)cc2-c2ccc3c(ccc4ccccc43)c2)cc1 + Oc1nc(-c2ccc(C(F)(F)F)cc2)nc2c1CSCC2 [XAV939] (first compound 1 µM, partner dose 2 µM) | 87.2% | 54% | 89.2% | 99% | 78.3% | 63.5% | 88.3% | 83% | 83.3%
C[C@]1(c2nc3c(C(N)=O)cccc3[nH]2)CCCN1 [Veliparib] + COc1ccc2c(c1)CCC1C2CCC2(C)C(NCCCCCCN3C(=O)C=CC3=O)CCC12 [U73122] (first compound 1.4 µM, partner dose 0.4 µM) | 98% | 93.7% | 108% | 104% | 76.4% | 98.3% | 91.4% | 92.9% | 94.7%
C=CCn1c(=O)c2cnc(Nc3ccc(N4CCN(C)CC4)cc3)nc2n1-c1cccc(C(C)(C)O)n1 + N#Cc1c(O)c2c(-c3ccc(-c4ccccc4O)cc3)csc2[nH]c1=O [A769662] (first compound 0.02 µM, partner dose 2 µM) | 102% | 103% | 93% | 98.3% | 96% | 102% | 85.5% | 88.7% | 93.1%
CN(C)S(=O)(=O)c1ccc2c(c1)/C(=C/c1cc3c([nH]1)CCCC3)C(=O)N2 + O=S(=O)(c1ccccc1)N(CC(F)(F)F)c1ccc(C(O)(C(F)(F)F)C(F)(F)F)cc1 [T0901317] (first compound 0.4 µM, partner dose 1.4 µM) | 98% | 105% | 124% | 77.3% | 91.8% | 116% | 99.8% | 85.6% | 91.6%
NC(=O)Nc1cc(-c2cccc(F)c2)sc1C(=O)N[C@H]1CCCNC1 + CC(C)CCN1c2nc(Nc3cc(F)c(O)c(F)c3)ncc2N(C)C(=O)C1C [BID1870] (first compound 0.02 µM, partner dose 0.2 µM) | 105% | 97.4% | 91.8% | 138% | 97.6% | 104% | 104% | 101% | 82.7%
CO[C@@H]1[C@H](N(C)C(=O)c2ccccc2)C[C@H]2O[C@]1(C)n1c3ccccc3c3c4c(c5c6ccccc6n2c5c31)C(=O)NC4 [Midostaurin] + Oc1cc(-c2nc(-c3ccccc3)[nH]c2-c2ccncc2)ccc1Cl [L779450] (first compound 0.08 µM, partner dose 0.2 µM) | 72.2% | 87.1% | 87.6% | 78.9% | 70.3% | 86.8% | 92% | 80.3% | 72.5%
CN(C)S(=O)(=O)c1ccc2c(c1)/C(=C/c1cc3c([nH]1)CCCC3)C(=O)N2 + COc1cc2ncnc(Nc3ccc(Oc4ccccc4)cc3)c2cc1OC [SrcI1] (first compound 0.4 µM, partner dose 2 µM) | 97.1% | 74.8% | 112% | 101% | 90.5% | 87.7% | 102% | 96.3% | 87.5%
OCCn1cc(-c2cnc3nnn(Cc4ccc5ncccc5c4)c3n2)cn1 + COc1ccc(-c2ccc3c(N4CCOCC4)nc(N4C[C@@H](C)O[C@@H](C)C4)nc3n2)cc1CO [KU0063794] (first compound 1 µM, partner dose 0.02 µM) | 99.6% | 79.2% | 110% | 104% | 73.8% | 91% | 78.1% | 66.7% | 90%
C[C@]1(c2nc3c(C(N)=O)cccc3[nH]2)CCCN1 [Veliparib] + Oc1cc(-c2nc(-c3ccccc3)[nH]c2-c2ccncc2)ccc1Cl [L779450] (first compound 1.4 µM, partner dose 0.2 µM) | 80.2% | 111% | 101% | 80.7% | 66.6% | 100% | 90.4% | 91.7% | 66%
NC(=O)Nc1cc(-c2cccc(F)c2)sc1C(=O)N[C@H]1CCCNC1 + COc1cc(N2CCC(N3CCN(C)CC3)CC2)ccc1Nc1ncc(Cl)c(Nc2ccccc2S(=O)(=O)C(C)C)n1 [NVP-TAE684] (first compound 0.02 µM, partner dose 0.08 µM) | 103% | 92.9% | 98.3% | 115% | 78% | 97.2% | 103% | 110% | 104%
CN(C)S(=O)(=O)c1ccc2c(c1)/C(=C/c1cc3c([nH]1)CCCC3)C(=O)N2 + Oc1nc(-c2ccc(C(F)(F)F)cc2)nc2c1CSCC2 [XAV939] (first compound 0.4 µM, partner dose 2 µM) | 101% | 102% | 95.4% | 87.9% | 92.7% | 91% | 91.4% | 84.9% | 104%
